From the supplement of paper PMC3334620
The full ranking holds about 33,000 sequences; the median of “E-score (-0.5 to 0.5)” is about -0.013, and the highest 2% start at about 0.3. The list shows a part of the results.

Target: T1, Msn1 (UniProt P22148)
T1 sequence: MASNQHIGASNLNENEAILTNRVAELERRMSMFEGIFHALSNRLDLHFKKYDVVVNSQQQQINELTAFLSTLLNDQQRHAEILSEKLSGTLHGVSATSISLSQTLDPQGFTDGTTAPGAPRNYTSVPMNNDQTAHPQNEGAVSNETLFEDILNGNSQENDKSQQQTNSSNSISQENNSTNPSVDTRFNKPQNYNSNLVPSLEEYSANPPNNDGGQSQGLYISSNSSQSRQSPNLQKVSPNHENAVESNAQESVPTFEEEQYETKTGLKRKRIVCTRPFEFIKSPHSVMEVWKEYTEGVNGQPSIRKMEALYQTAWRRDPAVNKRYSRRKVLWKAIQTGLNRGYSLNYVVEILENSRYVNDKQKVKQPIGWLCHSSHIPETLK
Assay: PBM E-score (8-mer binding enrichment) (E-score (-0.5 to 0.5)); higher = stronger / more preferred TF binding; most listed sequences are background and not binding sites
Conditions: protein concentration: 200 nM; construct: GST-full length
How it was run: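 Using PURExpress in vitro transcription/translation, GST-tagged yeast transcription factors were made in full-length or DNA-binding-domain form. These were applied at about 100-200 nM to double-stranded universal all-10-mer Agilent arrays, and bound protein was detected with fluorescent anti-GST. Scans were normalised with masliner before the Universal PBM Analysis Suite assigned E-scores to ungapped eight-base words pooled with their reverse complements.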

| Sequence | PBM E-score |
| --- | --- |
| CAAGCTCA | 0.0331 |
| AAGTCCTC | 0.244 |
| CTCTCTTA | -0.122 |
| CGAAGTTA | 0.0705 |
| AAAGCGGC | 0.00446 |
| AGACGTGG | -0.0359 |
| ACTTTAAA | 0.174 |
| AGTGCTCA | -0.229 |
| GTGTTCAA | -0.0481 |
| GAGCCAGC | -0.109 |
| ACCGAGGT | -0.122 |
| CGAATAAC | 0.0021 |
| CCCCCGAC | -0.0991 |
| CCTCACCG | -0.281 |
| CCCGGCAG | -0.175 |
| CAAGGATC | 0.0888 |
| ATCCGTGA | 0.0476 |
| ATCTAAGG | -0.0326 |
| ACCTAACG | -0.203 |
| GACCTCGA | 0.0777 |
| ACTAGATC | -0.129 |
| ATGCGTGG | -0.194 |
| TCGCTTAA | 0.133 |
| AAAGTGTA | 0.0246 |
| TTGAACAA | 0.0827 |

| Sequence | PBM E-score |
| --- | --- |
| AGACCGTA | -0.249 |
| CTCACTTA | -0.22 |
| ATGACGCG | 0.132 |
| CGCCCTAG | -0.174 |
| AACTGTCC | 0.241 |
| CACGTGGA | 0.138 |
| AGGCCCGA | 0.0495 |
| ATTTATCA | 0.118 |
| CTCGTAAA | 0.0013 |
| CATGTTTC | 0.222 |
| TGATTGAA | 0.134 |
| ACGAAAGA | 0.141 |
| GGAACGCA | -0.0264 |
| ATAACGAG | -0.0658 |
| GGACTCAA | 0.0633 |
| CACTTAGA | 0.123 |
| GTAACAGA | 0.207 |
| CGTTACAA | 0.111 |
| AGTTAGCG | 0.0173 |
| CCCGCGAC | 0.078 |
| GAGCGGCA | -0.231 |
| CAAGCCCC | -0.25 |
| ACTAGCTG | 0.0299 |
| AACCCAAA | 0.194 |
| CAGTGACA | 0.226 |

| Sequence | PBM E-score |
| --- | --- |
| ATATAAAT | 0.2 |
| ATATGCAG | -0.00169 |
| GCTGGTCA | 0.0362 |
| AGCAGTGA | 0.041 |
| AGGGTCGA | -0.119 |
| CCTCAAAG | -0.231 |
| ATGGTGGA | -0.16 |
| CCGTTTAG | -0.0318 |
| AACTGTCT | 0.0666 |
| AGTGAGTC | -0.0286 |
| ACCTCAGT | -0.0404 |
| ATTTAGAG | 0.0544 |
| AAGCGTTA | -0.13 |
| CAATTTGC | -0.00349 |
| GCCCTTCC | -0.238 |
| GACGCCAC | -0.165 |
| ATCGGACC | 0.0183 |
| ACCCCGCG | -0.215 |
| GTAGCAGA | 0.0373 |
| CCCCCAAC | -0.179 |
| AAGGAAGC | -0.261 |
| TAGAACCA | -0.0411 |
| GCAAGATA | 0.08 |
| CCTGTGGA | -0.336 |
| AGAGGTGC | -0.263 |

| Sequence | PBM E-score |
| --- | --- |
| CAGGCACA | -0.299 |
| CTAGATGA | -0.0897 |
| GAGGTTTA | -0.146 |
| GTAATAAC | -0.129 |
| GTGCTGGA | -0.0881 |
| ATGCCGGC | 0.0732 |
| GCGACCGC | -0.114 |
| ACGCTAAC | 0.0391 |
| CCTACCCC | -0.352 |
| ATCTTTCG | 0.0112 |
| AACAGTGG | -0.0992 |
| GATAGTAC | 0.154 |
| CTGCCGAC | -0.109 |
| CCCCGGAA | -0.218 |
| CAACCTGG | -0.0352 |
| ACATAAAA | 0.178 |
| AAATCAGA | 0.191 |
| ACTAACTC | -0.0494 |
| ACGTCGAT | 0.0102 |
| CCCCCACA | -0.238 |
| CCACGCCC | -0.289 |
| ACTTGTCT | 0.407 |
| AGACGGGA | -0.11 |
| ATTCTCCA | 0.0925 |
| TACCATGA | 0.0749 |

| Sequence | PBM E-score |
| --- | --- |
| AGGGCCCG | -0.206 |
| GTCTTTCA | -0.012 |
| ACCAATCA | 0.0321 |
| ACGTTTGC | 0.00697 |
| ACAGACAT | 0.399 |
| CAATTAGC | -0.0381 |
| CCGTCATA | 0.00889 |
| ACACTTTA | 0.0955 |
| CTGATAAG | 0.21 |
| AAGCGGAC | 0.014 |
| CGAGAAAC | -0.00756 |
| ATCGGGAG | -0.0192 |
| ATTCGCTG | 0.00671 |
| AACCGCTT | 0.051 |
| GACCGCGC | -0.164 |
| GCGAAGTA | -0.0188 |
| CACGGTGG | -0.0943 |
| ACCGGGGC | -0.2 |
| ACAATGAG | -0.106 |
| CCACGCTC | -0.283 |
| ACGGTGAC | -0.0603 |
| ATCGACAC | -0.0458 |
| CTTCACAA | -0.0814 |
| GTTTCTGA | 0.0636 |
| TGCTCGAA | -0.168 |

| Sequence | PBM E-score |
| --- | --- |
| CGCGAGCA | -0.0965 |
| ATAGAATG | 0.0417 |
| CCCTAAAC | -0.171 |
| ACCGTAAC | -0.0464 |
| AGACTAAC | 0.0305 |
| CGGACCAA | 0.256 |
| GGGAGTTA | -0.121 |
| CGGGTCTC | 0.0153 |
| AACCAGAT | 0.0243 |
| ATTTCTGA | -0.0224 |
| TACCACCA | -0.101 |
| GCATGGGC | -0.183 |
| CTAAACGC | 0.129 |
| AAGCCCCC | -0.41 |
| AGTTTTCG | 0.0416 |
| GGCCTGCA | -0.288 |
| ATACTTAG | 0.138 |
| GGGGCAAC | -0.191 |
| CCCTCATA | -0.117 |
| ATTCAACG | 0.149 |
| ATTGTAAA | 0.0714 |
| ACCTATAC | -0.00208 |
| ATGGACTC | 0.0714 |
| TATAGATA | 0.0139 |
| CTGGGTCA | -0.203 |

| Sequence | PBM E-score |
| --- | --- |
| GAGCTGTA | -0.045 |
| GGCGGCAC | -0.081 |
| CCCTGTTA | -0.113 |
| AGTGGTGG | -0.0804 |
| AAATAAAT | 0.155 |
| CATGTGCG | 0.177 |
| AGGGGCTA | -0.218 |
| CGTCACTC | -0.188 |
| TCACGCAA | 0.18 |
| CGTGCCAA | -0.2 |
| AGGGCTTA | -0.181 |
| ACCTTCCA | -0.119 |
| ACGACCTA | -0.0056 |
| ATGCAGTG | 0.0222 |
| AATTCGCT | 0.236 |
| AGCGTGAG | -0.246 |
| AATGTGGT | 0.00774 |
| TAACAAGA | -0.0257 |
| AATAACCC | 0.109 |
| CGGACTCA | 0.178 |
| GATATGAC | 0.0383 |
| GGACTCCC | -0.181 |
